Biological target: hBUBR1 (human (endogenous in HeLa)) (UniProt O60566)
Test: SEC

UniProt O60566, sequence (O60566 whole entry): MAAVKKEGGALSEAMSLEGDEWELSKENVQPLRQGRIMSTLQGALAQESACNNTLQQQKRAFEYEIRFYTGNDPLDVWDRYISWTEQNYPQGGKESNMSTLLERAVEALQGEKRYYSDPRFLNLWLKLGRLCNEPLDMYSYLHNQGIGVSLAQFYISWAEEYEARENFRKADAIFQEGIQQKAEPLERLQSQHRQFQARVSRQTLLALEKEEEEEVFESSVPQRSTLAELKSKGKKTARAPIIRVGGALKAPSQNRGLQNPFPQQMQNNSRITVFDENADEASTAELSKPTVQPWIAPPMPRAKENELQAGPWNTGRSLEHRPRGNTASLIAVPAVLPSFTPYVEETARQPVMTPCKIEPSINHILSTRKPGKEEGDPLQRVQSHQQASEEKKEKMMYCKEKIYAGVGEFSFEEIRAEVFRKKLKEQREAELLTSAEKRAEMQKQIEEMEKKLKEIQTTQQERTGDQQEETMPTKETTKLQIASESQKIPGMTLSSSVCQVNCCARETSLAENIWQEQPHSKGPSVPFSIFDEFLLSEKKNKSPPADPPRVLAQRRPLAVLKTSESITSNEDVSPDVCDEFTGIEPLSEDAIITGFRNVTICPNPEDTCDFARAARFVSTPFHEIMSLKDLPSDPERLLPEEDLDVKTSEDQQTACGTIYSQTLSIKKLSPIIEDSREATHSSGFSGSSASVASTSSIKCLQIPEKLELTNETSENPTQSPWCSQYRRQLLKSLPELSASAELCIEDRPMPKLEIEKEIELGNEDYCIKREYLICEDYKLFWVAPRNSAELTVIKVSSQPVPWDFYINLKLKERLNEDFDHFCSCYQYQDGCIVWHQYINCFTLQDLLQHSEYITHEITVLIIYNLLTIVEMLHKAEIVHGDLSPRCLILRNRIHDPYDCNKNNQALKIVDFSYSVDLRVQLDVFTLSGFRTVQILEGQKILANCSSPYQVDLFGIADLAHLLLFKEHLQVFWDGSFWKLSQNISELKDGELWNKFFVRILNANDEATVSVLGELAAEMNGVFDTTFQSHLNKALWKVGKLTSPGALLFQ

percent of total MAD2 that comigrates with the MCC and the APC/C: < 5 % of total
Substance: MAD2 (a stretch of the chain, chain not printed) (natural protein; other documents disagree on this pair)
